# Data reported in publication PMC9911399, “Two distinct binding modes provide the RNA-binding protein RbFox with extraordinary sequence specificity”.
# Numbering of substitutions follows the chain as printed; changes in the protein carry UniProt numbers. The list shows a part of the results.
# T1: RBFOX1 RRM (Homo sapiens, UniProt Q9NWB1 109-208)
# T1 sequence: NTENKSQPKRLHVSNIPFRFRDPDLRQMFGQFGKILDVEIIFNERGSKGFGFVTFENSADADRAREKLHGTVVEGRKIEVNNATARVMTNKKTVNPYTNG
# B1: UGACUUG (DNA:RNA)
# RNA: GGGAGACCGGAAUUCAGAUUGUCCUGACUUGUUAAAUCCCGUCGUAGCCACCA
# DNA 1: CAATCTGAATTCCGGTCTCCC
# DNA 2: TGGTGGCTACGACGGGATT
# B2: GCUAUAG (DNA:RNA)
# RNA: B1 RNA with U25G, G26C, A27U, C28A, U30A
# DNA 1: CAATCTGAATTCCGGTCTCCC
# DNA 2: TGGTGGCTACGACGGGATT
# B3: UCCUUGU (DNA:RNA)
# RNA: B1 RNA with G26C, A27C, C28U, U30G, G31U
# DNA 1: CAATCTGAATTCCGGTCTCCC
# DNA 2: TGGTGGCTACGACGGGATT
# B4: ACGACCG (DNA:RNA)
# RNA: B1 RNA with U25A, G26C, A27G, C28A, U29C, U30C
# DNA 1: CAATCTGAATTCCGGTCTCCC
# DNA 2: TGGTGGCTACGACGGGATT
# B5: AUAAUAU (DNA:RNA)
# RNA: B1 RNA with U25A, G26U, C28A, U30A, G31U
# DNA 1: CAATCTGAATTCCGGTCTCCC
# DNA 2: TGGTGGCTACGACGGGATT
# B6: GGGAAAC (DNA:RNA)
# RNA: B1 RNA with U25G, A27G, C28A, U29A, U30A, G31C
# DNA 1: CAATCTGAATTCCGGTCTCCC
# DNA 2: TGGTGGCTACGACGGGATT
# B7: GAGAUAU (DNA:RNA)
# RNA: B1 RNA with U25G, G26A, A27G, C28A, U30A, G31U
# DNA 1: CAATCTGAATTCCGGTCTCCC
# DNA 2: TGGTGGCTACGACGGGATT
# B8: CUCUCGG (DNA:RNA)
# RNA: B1 RNA with U25C, G26U, A27C, C28U, U29C, U30G
# DNA 1: CAATCTGAATTCCGGTCTCCC
# DNA 2: TGGTGGCTACGACGGGATT
# B9: GCAUAGC (DNA:RNA)
# RNA: B1 RNA with U25G, G26C, C28U, U29A, U30G, G31C
# DNA 1: CAATCTGAATTCCGGTCTCCC
# DNA 2: TGGTGGCTACGACGGGATT
# B10: GAGCUAG (DNA:RNA)
# RNA: B1 RNA with U25G, G26A, A27G, U30A
# DNA 1: CAATCTGAATTCCGGTCTCCC
# DNA 2: TGGTGGCTACGACGGGATT
# B11: CUUUUUG (DNA:RNA)
# RNA: B1 RNA with U25C, G26U, A27U, C28U
# DNA 1: CAATCTGAATTCCGGTCTCCC
# DNA 2: TGGTGGCTACGACGGGATT
# B12: CAUAAGA (DNA:RNA)
# RNA: GGGAGACCGGAAUUCAGAUUGUCCCAUAAGAUUAAAUCCCGUCGUAGCCACCA
# DNA 1: CAATCTGAATTCCGGTCTCCC
# DNA 2: TGGTGGCTACGACGGGATT
# B13: CCUACAG (DNA:RNA)
# RNA: B12 RNA with A26C, A29C, G30A, A31G
# DNA 1: CAATCTGAATTCCGGTCTCCC
# DNA 2: TGGTGGCTACGACGGGATT
# B14: AAAUGCU (DNA:RNA)
# RNA: B12 RNA with C25A, U27A, A28U, A29G, G30C, A31U
# DNA 1: CAATCTGAATTCCGGTCTCCC
# DNA 2: TGGTGGCTACGACGGGATT
# B15: GCAGUAG (DNA:RNA)
# RNA: B1 RNA with U25G, G26C, C28G, U30A
# DNA 1: CAATCTGAATTCCGGTCTCCC
# DNA 2: TGGTGGCTACGACGGGATT
# B16: ACUAGUA (DNA:RNA)
# RNA: B12 RNA with C25A, A26C, A29G, G30U
# DNA 1: CAATCTGAATTCCGGTCTCCC
# DNA 2: TGGTGGCTACGACGGGATT
# B17: UUACCUA (DNA:RNA)
# RNA: B1 RNA with G26U, U29C, G31A
# DNA 1: CAATCTGAATTCCGGTCTCCC
# DNA 2: TGGTGGCTACGACGGGATT
# B18: GGAAACC (DNA:RNA)
# RNA: B12 RNA with C25G, A26G, U27A, G30C, A31C
# DNA 1: CAATCTGAATTCCGGTCTCCC
# DNA 2: TGGTGGCTACGACGGGATT
# B19: AGGUAGG (DNA:RNA)
# RNA: B12 RNA with C25A, A26G, U27G, A28U, A31G
# DNA 1: CAATCTGAATTCCGGTCTCCC
# DNA 2: TGGTGGCTACGACGGGATT
# B20: CGGGCUC (DNA:RNA)
# RNA: B1 RNA with U25C, A27G, C28G, U29C, G31C
# DNA 1: CAATCTGAATTCCGGTCTCCC
# DNA 2: TGGTGGCTACGACGGGATT
# Target: T1, RBFOX1 RRM
# Test: EMSA; HiTS-Eq, 1 nM pool, 10 min; buffer printed only for the single-RNA assays: 10 mM Tris pH 7.5, 150 mM NaCl, 3.4 mM EDTA, 0.001% NP-40, 30 C
# Settings: tags: His6 N-terminal (pET28a); label: 5' 32P
# Procedure, shortened: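 Relative association constants, normalised to the cognate motif, were derived by comparing read counts of each RNA species with those of the control reaction. The RNA sequenced was the free fraction, separated by 8% native PAGE after a 10 min equilibration in 50 µL of 1 nM 5′-radiolabelled RNA (7 randomized nucleotides) with increasing concentrations of purified wild-type or mutant RbFox RRM.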
row,Binder,binding signal
1,B1,0.0454 KA relative to UGCAUGU
2,B2,0.012 KA relative to UGCAUGU
3,B3,0.0095 KA relative to UGCAUGU
4,B4,0.0087 KA relative to UGCAUGU
5,B5,0.00063 KA relative to UGCAUGU
6,B6,0.0277 KA relative to UGCAUGU
7,B7,0.00642 KA relative to UGCAUGU
8,B8,0.0101 KA relative to UGCAUGU
9,B9,0.0095 KA relative to UGCAUGU
10,B10,0.0261 KA relative to UGCAUGU
11,B11,0.0263 KA relative to UGCAUGU
12,B12,0.00403 KA relative to UGCAUGU
13,B13,0.00897 KA relative to UGCAUGU
14,B14,0.00516 KA relative to UGCAUGU
15,B15,0.00887 KA relative to UGCAUGU
16,B16,0.00584 KA relative to UGCAUGU
17,B17,0.0018 KA relative to UGCAUGU
18,B18,0.00863 KA relative to UGCAUGU
19,B19,0.015 KA relative to UGCAUGU
20,B20,0.0209 KA relative to UGCAUGU
